The whole screen tested about 94,000 compounds, of which about 4,000 (4.3%) were called active. This list was built around the results that the source calls inconclusive (neither active nor inactive); the mix of calls is not that of the screen. Calls follow the shape of the dose curve; as a rule, active = well fitted inhibition curve with a large enough effect; inconclusive = small, poorly fitted or top-dose-only effect; inactive = no such curve, though single readings can be large or run the other way. A potency beside an inconclusive call is a rough fit, not a confirmed value.
Experiment: Cytotoxic Profiling in NIH 3T3 Cell Line of Diverse Libraries Using Quantitative High-Throughput Screening; also: nearly all actives have a fitted effect of over 55% in size
Conditions: NIH 3T3 viability, CellTiter-Glo ATP luminescence, 48-72 h; series mostly up to 96.7 µM
In short: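 Cytotoxicity was measured by CellTiter-Glo ATP luminescence after 48 or 72 h compound exposure at 37 °C. Mouse NIH 3T3 fibroblasts were seeded at 400 cells/well and dosed by 23 nL pin transfer.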
Potency is read from the fitted curve at half-maximal effect; tags tell the direction and shape of the fitted curve.

SMILES	Potency
C=CCNC(=O)CCc1c(C)nn(-c2ccccc2C)c1Oc1cccc(F)c1	inconclusive: 50.1 µM [inhibitor, partial curve, poor fit]
CN(C)c1ccc(CN2CCn3c(nn(-c4ccc(F)cc4F)c3=O)C2)cc1	inactive
Cc1ccc(OCCC2CCN(C(=O)Cc3c[nH]c4ccccc34)C2)cc1 (configuration not stated)	inconclusive: 44.7 µM [inhibitor, partial curve, poor fit]
COCCN1Cc2nc(Nc3ccc(C(F)(F)F)cc3)ccc2OCC1=O	inconclusive: 56.2 µM [inhibitor, partial curve, poor fit]
Cc1ccccc1C(=O)NC1CCCN(c2ccc3nnc(C)n3n2)C1 (configuration not stated)	inconclusive: 50.1 µM [inhibitor, partial curve, poor fit]
O=C1Nc2ccc(-c3ccc(Cl)cc3)cc2C(=O)N2CCN(C(=O)NC3CCCCC3)C[C@H]12	inconclusive: 89.1 µM [inhibitor, single point]
O=C(N1CCC2(CC1)CC(N(Cc1ccccc1)C1CC1)CCO2)C1(c2ccccc2)CC1 (configuration not stated)	active: 44.7 µM
CC(=O)NCc1nnc2n1C(C(=O)NCc1cccs1)CC2 (configuration not stated)	inactive
COc1ccc(-c2nc3c(c(=O)[nH]2)CCN(C(=O)Cc2ccsc2)C3)cc1	inconclusive: 70.8 µM [inhibitor, single point]
Cc1ccc(-c2ccccc2CN2CCC(C(=O)NCc3ccc(Cl)cc3)CC2)cc1Cl	inconclusive: 14.1 µM [inhibitor, full curve, poor fit]
CCN(CC)C(=O)c1cccc(-c2ccc(OCCn3ccnc3)cc2)c1	inconclusive: 44.7 µM [inhibitor, partial curve]
COc1ccccc1-n1c(=O)c(C(=O)N2CCN(C(=O)c3ccccc3)CC2)nc2cccnc21	inactive
OCc1ccc(CN2C[C@H](O)C[C@H]2c2nc(-c3ccc(F)cc3)no2)o1	inactive
O=C(c1ccc(Cl)nc1)N1CCCC1C(=O)N1CCCC1c1nc2ccncc2[nH]1 (configuration not stated)	inactive
COc1ccc(Nc2ccnc(N3CCC(N[S+](=O)([O-])c4c(C)noc4C)CC3)n2)cc1	active: 39.8 µM
NC(=O)c1ccc(CC2CCN(C(=O)C3CCC3)CC2)cc1	inconclusive: 44.7 µM [inhibitor, partial curve, poor fit]
CCCn1cc(-c2ccncc2)cc1C(=O)NCc1ccc(OC)cc1	inconclusive: 50.1 µM [inhibitor, partial curve, poor fit]
Cc1ccc(Cn2c(C3CCN(C(=O)c4ccsc4)CC3)n[nH]c2=O)cc1	inconclusive: 70.8 µM [inhibitor, single point]
CCNC(=O)N[C@H]1C[C@@H](Cc2cc(CN3CCN(c4ccccc4)CC3)on2)C1(C)C	inconclusive: 56.2 µM [inhibitor, partial curve, poor fit]
COC1CCCN(c2cc(-c3ccc(Cl)cc3)nc3c(C)noc23)C1 (configuration not stated)	inconclusive: 56.2 µM [inhibitor, partial curve, poor fit]
Cc1ccsc1CN1CCC(Oc2cc(Cl)ccc2C(=O)N2CCCCC2)CC1	inconclusive: 56.2 µM [inhibitor, partial curve, poor fit]
c1cnc2nc(C3CCNC3)[nH]c2c1 (configuration not stated)	inactive
CN(C)C(=O)[C@@H]1CCCN1c1nccc(Nc2ccccc2Cl)n1	inactive

SMILES	Potency
C#CCNC(=O)c1cc(-c2ccccc2OC)nc2c1cnn2C	inactive
COc1ccccc1OCc1nnc(C(=O)N2CCC[C@@H]2C(c2ccccc2)c2ccccc2)n1-c1ccccc1	inactive
CC(C)(C)c1coc([C@@H]2COCCN2Cc2cccc(C#N)c2)n1	inactive
Cc1cc(=O)n(CC(=O)Nc2ccc(C(F)(F)F)cc2)c(N2CCc3ccccc3C2)n1	inconclusive: 50.1 µM [inhibitor, partial curve, poor fit]
Cc1cccc(CNC(=O)COc2ccc(NC(=O)C3CC3)cn2)c1	inactive
CCCCN1CCc2[nH]cnc2C1c1cc(C)ccc1F (configuration not stated)	inactive
CNC(=O)c1cc(C2CC2)nc2c1c(C1CCCN1C(=O)c1ccncc1)nn2C (configuration not stated)	inactive
O=C(c1cccnc1)N1CCC2(CC1)N=C(c1ccc(Cl)cc1)NO2	inactive
Cc1ccc2nc(C3CCCN(CC4CCCC4)C3)[nH]c(=O)c2c1 (configuration not stated)	inconclusive: 44.7 µM [inhibitor, partial curve]
NS(=O)(=O)c1ccc(C(=O)N2C[C@@H](CN3CCCCC3)[C@@H](CO)C2)cc1	inactive
O=C(NCc1ccccc1)N1CCC2(CC1)CC(N(C(=O)c1ccccc1)C1CC1)CCO2 (configuration not stated)	inconclusive: 50.1 µM [inhibitor, partial curve, poor fit]
Cc1ccc(-c2cn3cc(C(=O)NCc4ccccc4)nc3s2)cc1	inactive
CC(C)(C)C1CCC2(CC1)NC(=O)N(CC(=O)N1CCN(c3ccccc3)CC1)C2=O (configuration not stated)	inactive
O=C(c1ccccc1)N1CCC(c2nn(-c3ccccn3)c(=O)[nH]2)CC1	inactive
COc1ccc(C(=O)N2CCC3(CC2)N=C(c2cccc(Br)c2)NO3)cc1	inconclusive: 44.7 µM [inhibitor, partial curve, poor fit]
CNC(=O)CCn1ncc2cc(OC3CCc4cccc(-c5ccc(O)c(F)c5)c43)ccc21 (configuration not stated)	active: 39.8 µM
COc1ccc(C(=O)N2CCc3ccc(C(=O)NCc4ccccc4OC)cc32)cc1	inconclusive: 44.7 µM [inhibitor, partial curve, poor fit]
O=C(c1ccccc1F)N1CC2CC(C1)[C@H]1CCCC(=O)N1C2 (some centres not stated)	inactive
O=C(c1ccsc1)N1CCC2(CC1)CC(N(Cc1ccccc1)C1CC1)CCO2 (configuration not stated)	inconclusive: 50.1 µM [inhibitor, partial curve, poor fit]
CC(C)CCN1CCC(Oc2ccc(C(N)=O)cn2)CC1	inactive
O=C(NC1CCCCCC1)C1CCN(C(=O)c2ccc(-c3cccs3)cc2)CC1	inconclusive: 50.1 µM [inhibitor, partial curve, poor fit]
COCc1cn(C[C@H]2C[C@@H](NCc3nccs3)[C@H](O)[C@@H]2O)nn1	inactive
CCNC(=O)CC1=CSC2=NC(C)=C(C(=O)OCC)C(c3cccc([N+](=O)[O-])c3)N12 (configuration not stated)	inactive

SMILES	Potency
CCOC(=O)c1[nH]ncc1C1CC(=O)Nc2n[nH]c(-c3ccccc3)c21 (configuration not stated)	inactive
Cc1ccc(S(=O)(=O)Cc2noc([C@@H]3C[C@@H](O)CN3Cc3ccc(S(C)(=O)=O)cc3)n2)cc1	inconclusive: 31.6 µM [inhibitor, full curve, poor fit]
COCCn1c(=O)c(C(=O)NCC(F)(F)F)nc2cccnc21	inactive
COc1cccc(-c2cc(C3CCN(C(=O)c4ccc(Cl)cc4)CC3)[nH]n2)c1	inconclusive: 50.1 µM [inhibitor, partial curve, poor fit]
N#Cc1ccc(C(=O)N2CCN(C(=O)c3nnn4c3COC(c3ccc(Cl)cc3)C4)CC2)cc1 (configuration not stated)	inactive
O=C(c1cccc(Cl)c1)N1CCC[C@H]1c1nc(-c2ccccc2)no1	inconclusive: 50.1 µM [inhibitor, partial curve, poor fit]
CCN(CC)[C@H]1[C@@H]2OC[C@@H](O2)[C@@H](NCc2ccccc2OC)[C@@H]1O	inactive
CCCC(=O)N1Cc2ccccc2CC2(CCN(Cc3ccc(O)cc3)C2)C1 (configuration not stated)	inconclusive: 56.2 µM [inhibitor, single point]
Fc1ccccc1-c1noc(NCc2ccccc2)n1	inconclusive: 50.1 µM [inhibitor, partial curve, poor fit]
O=C(c1ccc[nH]1)N1CCC2(CC1)N=C(c1ccc(Cl)cc1)NO2	inconclusive: 50.1 µM [inhibitor, partial curve, poor fit]
CC(C)CNC(=O)c1ccc2oc(-c3ccnc(Cl)c3)nc2c1	inconclusive: 89.1 µM [inhibitor, partial curve, poor fit]
Cc1ccsc1CN1CCCCC12Cc1ccccc1CNC2=O (configuration not stated)	inconclusive: 39.8 µM [inhibitor, partial curve, poor fit]
O=C(Cc1ccc(F)cc1)N1CCC(C(=O)N2CCC(c3ccccc3)CC2)CC1	inconclusive: 50.1 µM [inhibitor, partial curve, poor fit]
COCC(=O)Nc1ccc(-c2noc([C@@H]3CCCN3Cc3cc4ccccc4o3)n2)cn1	inconclusive: 100 µM [inhibitor, partial curve]
CC(C)(C)CC(=O)N1CC[C@@H](CC(=O)O)[C@@H](CCN2CCN(c3ccccc3)CC2)C1	inactive
CCOc1ccc(C(O)Cn2ccn3nc(-c4ccccc4C)cc3c2=O)cc1 (configuration not stated)	inconclusive: 39.8 µM [inhibitor, partial curve, poor fit]
CC(C)c1ccc(CC(=O)N2CCCc3ncc(C(=O)NCc4ccc(F)cc4)cc32)cc1	inconclusive: 50.1 µM [inhibitor, partial curve, poor fit]
CCCn1c(C)c(CC(=O)NCC2CCCOC2)c2c1CC(C)(C)CC2=O (configuration not stated)	inactive
O=C(Cc1ccsc1)N1CCC2(CCCN(CC3CCC3)C2=O)C1 (configuration not stated)	inconclusive: 39.8 µM [inhibitor, partial curve, poor fit]
COc1cc(CNC(=O)c2cc(-c3ccc(F)cc3)cc3ncn(C)c23)ccn1	inconclusive: 50.1 µM [inhibitor, partial curve, poor fit]
O=[S+]([O-])(c1ccccc1)N1CC2(COCCN(CC3CC3)C2)C1	inconclusive: 112 µM [inhibitor, single point]
